# The other results are listed elsewhere or left out.
# Biological target: no compound (DMSO)
# Assay: log2 fold change of degron read counts, EGFP-low vs EGFP+ sorted cells; higher = lower degron-EGFP level without compound (poor expression or instability)
# Conditions: compound: DMSO control; 18 h
# 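Further: jurkat cells carrying a lentiviral library of mutant zinc finger degrons fused to EGFP plus mCherry, mCherry+ cells FACS sorted, degron abundance counted by next-generation sequencing.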
row,Sequence,log2 fold change of degron read counts
1,FDCPICGAHFTQKGNLLRHIKL,-1.25
2,FCCEVCGAFFTQKGNLLRHIKL,-0.716
3,FKCDVCGALFTQKGNLLRHIKL,-2.11
4,FWCEQCGACFTQKGNLLRHIKL,-0.592
5,FVCNQCGRAFTQKGNLLRHIKL,-0.71
6,FMCPVCGAWFTQKGNLLRHIKL,0.662
7,FQCEICGRQFTQKGNLLRHIKL,-2.26
8,FWCEICGRDFTQKGNLLRHIKL,-1.1
9,LACPICGFCCTQKGNLLRHIKL,0.912
10,FLCEICGRSFTQKGNLLRHIKL,-0.989
11,FHCDVCGAKFTQKGNLLRHIKL,-1.13
12,FKCNICGANFTQKGNLLRHIKL,-0.593
13,FMCPICGAHFTQKGNLLRHIKL,-0.502
14,FICPICGHMFTQKGNLLRHIKL,0.259
15,FHCEVCGAHFTQKGNLLRHIKL,-2.11
16,FGCPICGRAFTQKGNLLRHIKL,-0.174
17,FFCNQCGAFFTQKGNLLRHIKL,1.35
18,FFCSVCGHKFTQKGNLLRHIKL,-0.164
19,FVCPQCGAMFTQKGNLLRHIKL,-1.12
20,FGCDICGAPFTQKGNLLRHIKL,-0.311
21,FMCNVCGAWFTQKGNLLRHIKL,0.268
22,LGCEICGFACTQKGNLLRHIKL,0.398
23,FACPICGHQFTQKGNLLRHIKL,-0.119
24,LFCPICGFNCTQKGNLLRHIKL,1.44
25,LICEICGFGCTQKGNLLRHIKL,0.125

row,Sequence,log2 fold change of degron read counts
1,FDCEICGAIFTQKGNLLRHIKL,-0.483
2,FDCPICGRDFTQKGNLLRHIKL,-0.236
3,FICNVCGAAFTQKGNLLRHIKL,-1.23
4,FICEVCGAFFTQKGNLLRHIKL,-0.116
5,LECEICGFECTQKGNLLRHIKL,-0.906
6,FHCNICGAMFTQKGNLLRHIKL,-0.697
7,LTCPICGFFCTQKGNLLRHIKL,1.34
8,LYCNQCGFDCTQKGNLLRHIKL,-0.283
9,FHCEICGAWFTQKGNLLRHIKL,-0.447
10,FFCPICGAYFTQKGNLLRHIKL,0.389
11,FMCNQCGHYFTQKGNLLRHIKL,0.019
12,FHCPICGRTFTQKGNLLRHIKL,-1.48
13,LHCEICGFTCTQKGNLLRHIKL,-0.35
14,FNCPQCGAEFTQKGNLLRHIKL,-1.05
15,FDCPICGACFTQKGNLLRHIKL,-0.468
16,FMCNQCGAEFTQKGNLLRHIKL,-0.594
17,FNCNQCGRLFTQKGNLLRHIKL,0.462
18,FTCNQCGRKFTQKGNLLRHIKL,-0.957
19,FHCNQCGHCFTQKGNLLRHIKL,-0.374
20,LECNQCGFQCTQKGNLLRHIKL,-0.783
21,FSCPICGHHFTQKGNLLRHIKL,-0.114
22,FNCEICGRTFTQKGNLLRHIKL,-1.31
23,FMCNQCGREFTQKGNLLRHIKL,-1.73
24,FFCPQCGARFTQKGNLLRHIKL,0.0137
25,FNCDQCGAMFTQKGNLLRHIKL,-1.72

# Source: the supplement of paper PMC12645437, “Orthogonal IMiD-Degron Pairs Induce Selective Protein Degradation in Cells” (ACS Chemical Biology, 2025)
